Results from the supplement of paper PMC8728848.
The other results are listed elsewhere or left out.

Columns and labels:
Test in all cases: glycan array binding signal (z-score within array); higher = stronger binding
Details in all cases: glycan notation: IUPAC condensed, linker removed
Fuc(a1-3)GlcNAc = target: Fuc(a1-3)GlcNAc
Procedure, shortened: (§1)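 The binding signal is a Z-score computed within each array and averaged over linkers. Arrays of the same protein sequence at different concentrations or buffers were also averaged together. Data originate from 3228 arrays in the Consortium for Functional Glycomics database, kept only where the protein sequence was available.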

[1] = target: Fuc(a1-3)[Gal(b1-4)]Glc6S
Procedure, shortened: as §1

[2] = target: Fuc(a1-3)[Gal(b1-4)]GlcNAc
Procedure, shortened: as §1

[3] = target: Fuc(a1-3)[Gal(b1-4)]GlcNAc(b1-2)Man
Procedure, shortened: as §1

[4] = target: Fuc(a1-3)[Gal(b1-4)]GlcNAc(b1-2)Man(a1-3)[Fuc(a1-3)[Gal(b1-4)]GlcNAc(b1-2)Man(a1-6)]Man(b1-4)GlcNAc(b1-4)GlcNAc
Procedure, shortened: as §1

[5] = target: Fuc(a1-3)[Gal(b1-4)]GlcNAc(b1-2)Man(a1-3)[Fuc(a1-3)[Gal(b1-4)]GlcNAc(b1-2)Man(a1-6)]Man(b1-4)GlcNAc(b1-4)[Fuc(a1-6)]GlcNAc
Procedure, shortened: as §1

[6] = target: Fuc(a1-3)[Gal(b1-4)]GlcNAc(b1-3)Gal(b1-3)[Fuc(a1-4)]GlcNAc
Procedure, shortened: as §1

[7] = target: Fuc(a1-3)[Gal(b1-4)]GlcNAc(b1-3)Gal(b1-4)[Fuc(a1-3)]GlcNAc
Procedure, shortened: as §1

[8] = target: Fuc(a1-3)[Gal(b1-4)]GlcNAc(b1-3)Gal(b1-4)[Fuc(a1-3)]GlcNAc(b1-3)Gal(b1-4)[Fuc(a1-3)]GlcNAc
Procedure, shortened: as §1

[9] = target: Fuc(a1-3)[Gal(b1-4)]GlcNAc(b1-3)GalNAc
Procedure, shortened: as §1

[10] = target: Fuc(a1-3)[Gal(b1-4)]GlcNAc(b1-6)GalNAc
Procedure, shortened: as §1

[11] = target: Fuc(a1-3)[Gal(b1-4)]GlcNAc(b1-6)[Gal(b1-3)GlcNAc(b1-3)]Gal(b1-4)Glc
Procedure, shortened: as §1

[12] = target: Fuc(a1-3)[Gal(b1-4)]GlcNAc6S
Procedure, shortened: as §1

[13] = target: Fuc(a1-3)[Gal3S(b1-4)]Glc
Procedure, shortened: as §1

[14] = target: Fuc(a1-3)[Gal3S(b1-4)]GlcNAc
Procedure, shortened: as §1

[15] = target: Fuc(a1-3)[Gal3S(b1-4)]GlcNAc6S
Procedure, shortened: as §1

[16] = target: Fuc(a1-3)[GalNAc(b1-4)]GlcNAc
Procedure, shortened: as §1

[17] = target: Fuc(a1-3)[GalNAc(b1-4)]GlcNAc6S
Procedure, shortened: as §1

Fuc(a1-4)GlcNAc = target: Fuc(a1-4)GlcNAc
Procedure, shortened: as §1

Fuc(b1-3)GlcNAc = target: Fuc(b1-3)GlcNAc
Procedure, shortened: as §1

Gal(a1-2)Gal = target: Gal(a1-2)Gal
Procedure, shortened: as §1

Gal(a1-3)Gal = target: Gal(a1-3)Gal
Procedure, shortened: as §1

Gal(a1-3)Gal(b1-3)GlcNAc = target: Gal(a1-3)Gal(b1-3)GlcNAc
Procedure, shortened: as §1

[18] = target: Gal(a1-3)Gal(b1-3)GlcNAc(b1-2)Man
Procedure, shortened: as §1

[19] = target: Gal(a1-3)Gal(b1-3)GlcNAc(b1-2)Man(a1-3)[Gal(a1-3)Gal(b1-3)GlcNAc(b1-2)Man(a1-6)]Man(b1-4)GlcNAc(b1-4)GlcNAc
Procedure, shortened: as §1

[20] = target: Gal(a1-3)Gal(b1-3)GlcNAc(b1-3)GalNAc
Procedure, shortened: as §1

[21] = target: Gal(a1-3)Gal(b1-3)GlcNAc(b1-6)GalNAc
Procedure, shortened: as §1

[22] = target: Gal(a1-3)Gal(b1-3)[Fuc(a1-4)]GlcNAc(b1-2)Man(a1-3)[Gal(a1-3)Gal(b1-3)[Fuc(a1-4)]GlcNAc(b1-2)Man(a1-6)]Man(b1-4)GlcNAc(b1-4)GlcNAc
Procedure, shortened: as §1

Gal(a1-3)Gal(b1-4)Glc = target: Gal(a1-3)Gal(b1-4)Glc
Procedure, shortened: as §1

Gal(a1-3)Gal(b1-4)GlcNAc = target: Gal(a1-3)Gal(b1-4)GlcNAc
Procedure, shortened: as §1

[23] = target: Gal(a1-3)Gal(b1-4)GlcNAc(b1-2)Man
Procedure, shortened: as §1

[24] = target: Gal(a1-3)Gal(b1-4)GlcNAc(b1-2)Man(a1-3)[Gal(a1-3)Gal(b1-4)GlcNAc(b1-2)Man(a1-6)]Man(b1-4)GlcNAc(b1-4)GlcNAc
Procedure, shortened: as §1

[25] = target: Gal(a1-3)Gal(b1-4)GlcNAc(b1-3)GalNAc
Procedure, shortened: as §1

[26] = target: Gal(a1-3)Gal(b1-4)GlcNAc(b1-6)GalNAc
Procedure, shortened: as §1

[27] = target: Gal(a1-3)Gal(b1-4)[Fuc(a1-3)]GlcNAc
Procedure, shortened: as §1

[28] = target: Gal(a1-3)Gal(b1-4)[Fuc(a1-3)]GlcNAc(b1-2)Man(a1-3)[Gal(a1-3)Gal(b1-4)[Fuc(a1-3)]GlcNAc(b1-2)Man(a1-6)]Man(b1-4)GlcNAc(b1-4)GlcNAc
Procedure, shortened: as §1

Gal(a1-3)GalNAc = target: Gal(a1-3)GalNAc
Procedure, shortened: as §1

[29] = target: Gal(a1-3)[Gal(a1-4)]Gal(b1-4)GlcNAc
Procedure, shortened: as §1

[30] = target: Gal(a1-4)Gal(b1-3)GlcNAc(b1-2)Man(a1-3)[Gal(a1-4)Gal(b1-3)GlcNAc(b1-2)Man(a1-6)]Man(b1-4)GlcNAc(b1-4)GlcNAc
Procedure, shortened: as §1

Gal(a1-4)Gal(b1-4)Glc = target: Gal(a1-4)Gal(b1-4)Glc
Procedure, shortened: as §1

Gal(a1-4)Gal(b1-4)GlcNAc = target: Gal(a1-4)Gal(b1-4)GlcNAc
Procedure, shortened: as §1

[31] = target: Gal(a1-4)Gal(b1-4)GlcNAc(b1-2)Man(a1-3)[Gal(a1-4)Gal(b1-4)GlcNAc(b1-2)Man(a1-6)]Man(b1-4)GlcNAc(b1-4)GlcNAc
Procedure, shortened: as §1

[32] = target: Gal(a1-4)Gal(b1-4)GlcNAc(b1-3)Gal(b1-4)Glc
Procedure, shortened: as §1

Gal(a1-4)GlcNAc = target: Gal(a1-4)GlcNAc
Procedure, shortened: as §1

Gal(a1-6)Glc = target: Gal(a1-6)Glc
Procedure, shortened: as §1

B1: PX9937B-bvu-524-33-524 (Bacteroides vulgatus) (protein)
chain: GTAYWKNPDQFTAFNTGLHALLREKSYNFFLLGEPRADIYGDNPIGGEASQGMERLPFNTINKENVGISNYGDMYKIINQINQMIAKTTETTILTEATQNYYLGEAYGMRAYLYFHLLRSWGDVVLYLDYTEGQNLDLSNITKGVSPATEVMEQIKKDIQASENAFGSDYSFKLGRHFWSAAATQMLKGEAYLWSGRQMNGGNSDYTIAKNAFENVKKADVGLVTSSFKDIFSFENKKNKEMIFTIHNGKDEYEMWGGYYRMRLIPAQDKMVKIYCDENGNSFVGTPDAQLNGLTQLQVRREFYFKGFRNNDTRWTTSLKAVYKKDAQGVVSYFGPITYKFQGTMLEGGSTRSFLDDFPIYRYADCLLQLAMAKVLLGEDPTEEINAVRERAYGSKYFNEHKAEIAYPNDNDPEFYTDNKWMKPDNAGALEAILKERLREFMFEGKRWYDIRLLGWDYVHQYSSAEQSRLLWPIDAGTLTNNSALKQTPGYE
glycan array binding signal (z-score) (Fuc(a1-3)GlcNAc): -0.006
glycan array binding signal (z-score) [1]: 0.261
glycan array binding signal (z-score) [2]: -0.337
glycan array binding signal (z-score) [3]: -0.243
glycan array binding signal (z-score) [4]: 1.23
glycan array binding signal (z-score) [5]: -0.318
glycan array binding signal (z-score) [6]: -0.479
glycan array binding signal (z-score) [7]: -0.277
glycan array binding signal (z-score) [8]: -0.3
glycan array binding signal (z-score) [9]: -0.278
glycan array binding signal (z-score) [10]: 2.69
glycan array binding signal (z-score) [11]: -0.305
glycan array binding signal (z-score) [12]: 0.219
glycan array binding signal (z-score) [13]: -0.4
glycan array binding signal (z-score) [14]: -0.321
glycan array binding signal (z-score) [15]: -0.345
glycan array binding signal (z-score) [16]: 0.141
glycan array binding signal (z-score) [17]: -0.011
glycan array binding signal (z-score) (Fuc(a1-4)GlcNAc): -0.428
glycan array binding signal (z-score) (Fuc(b1-3)GlcNAc): -0.213
glycan array binding signal (z-score) (Gal(a1-2)Gal): -0.452
glycan array binding signal (z-score) (Gal(a1-3)Gal): -0.473
glycan array binding signal (z-score) (Gal(a1-3)Gal(b1-3)GlcNAc): -0.434
glycan array binding signal (z-score) [18]: -0.42
glycan array binding signal (z-score) [19]: -0.009
glycan array binding signal (z-score) [20]: 0.134
glycan array binding signal (z-score) [21]: 6.13
glycan array binding signal (z-score) [22]: 0.296
glycan array binding signal (z-score) (Gal(a1-3)Gal(b1-4)Glc): -0.297
glycan array binding signal (z-score) (Gal(a1-3)Gal(b1-4)GlcNAc): -0.286
glycan array binding signal (z-score) [23]: -0.063
glycan array binding signal (z-score) [24]: 2.91
glycan array binding signal (z-score) [25]: -0.383
glycan array binding signal (z-score) [26]: -0.216
glycan array binding signal (z-score) [27]: -0.389
glycan array binding signal (z-score) [28]: 1.23
glycan array binding signal (z-score) (Gal(a1-3)GalNAc): -0.384
glycan array binding signal (z-score) [29]: 0.889
glycan array binding signal (z-score) [30]: 0.413
glycan array binding signal (z-score) (Gal(a1-4)Gal(b1-4)Glc): 0.805
glycan array binding signal (z-score) (Gal(a1-4)Gal(b1-4)GlcNAc): -0.219
glycan array binding signal (z-score) [31]: 0.043
glycan array binding signal (z-score) [32]: -0.305
glycan array binding signal (z-score) (Gal(a1-4)GlcNAc): -0.412
glycan array binding signal (z-score) (Gal(a1-6)Glc): -0.181
